PubChem BioAssay (NCI)
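Briefly, cells in 96-well plates were exposed to five compound concentrations for 48 h, and endpoints were estimated by linear interpolation. GI50: concentration for 50% inhibition of growth. The concentration for full growth arrest is given as TGI.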

Test system: NCI-H322M lung
Test: NCI tumour cell line growth inhibition, 48 h

SMILES	TGI [µM]	GI50 [µM]
COc1ccc2c(c1)CCc1cc(OC)ccc1/[N+]([O-])=[N+]\2[O-]	> 56.5	
COc1ccc(C2C(C#N)=C(N)Oc3c2sc2c(Br)cccc32)cc1 (stereo unspecified)	24.2	4.73
O=C1OCC(c2ccc(Cl)cc2)=C1Cl	55.1	
CS(=O)(=O)c1ccc2nc(-c3ccc(O)cc3)sc2c1	30.7	
OCCCCn1cc(Cn2ncc3c(NCc4ccccc4)ncnc32)nn1	> 100	
C=C1C(=O)O[C@H]2[C@H]1CC/C(COC(=O)/C=C\C(=O)NCc1ccc(Cn3c(=O)sn(CCI)c3=O)cc1)=C\CC[C@@]1(C)O[C@@H]21	27.7	14.5
O=S(=O)(O)c1ccc2c(N=Nc3ccc(S(=O)(=O)O)c4ccccc34)c(O)c(S(=O)(=O)O)cc2c1	> 100	
CC(=O)Nc1ccc(S(=O)(=O)N=S(C)C)cc1	> 100	
CC1C[C@]2(C[C@@H](C)C(=O)O2)OC2CC3(C)C4CCC5C(C)(C)OC(=O)CC[C@@]56C[C@@]46CC[C@]3(C)C12 (stereo partly specified)	> 100	
C#C[C@@]1(O)[C@@H](CO)O[C@@H](n2cc(C(F)(F)F)c3c(N)ncnc32)[C@@H]1O	8.01	1.45
COc1ccc(CNc2nc(NCc3ccc(OC)cc3)nc(NC3CCCC3)n2)cc1	14	
COc1ccc(S(=O)(=O)Nc2c(/C=C\c3cc(OC)c(OC)c(OC)c3)ccc(OC)c2O)cc1	> 100	0.0633
CCS(=O)c1c2cc(OC)ccc2nc2ccc(OC)cc12 (stereo unspecified)	34.2	
O=C1Nc2ccccc2/C1=C\c1nc(-c2ccccc2F)n2ccccc12	14.1	4.16
CN(C)c1ccc(/C=N/c2nc3cc4sc(/N=C/c5ccc(N(C)C)cc5)nc4cc3s2)cc1	> 100	
COc1c(C(C)(C)C)cc(CC2C(=O)C=CC2=O)cc1C(C)(C)C	42.8	
Cn1cc(C2=C(c3cn(CCCN)c4ccccc34)C(=O)NC2=O)c2ccccc21	> 19.3	6.11
CCOC(=O)CCC(NC(=O)c1ccc(Oc2nc3c(N)cc(C(F)(F)F)cc3nc2-c2ccccc2)cc1)C(=O)OCC (stereo unspecified)	> 100	
CC(C)OC/N=C(/N)NC#N	> 100	
COc1ccccc1/C=C1\S/C(=N/Nc2nc(C)c(C(C)=O)s2)NC1=O	> 100	
O=C(Nc1ccc(Cl)cc1)c1cc([N+](=O)[O-])ccc1O	39.9	
COc1ccc2c(O)c(/C=C3\N=Nc4ncccc43)oc2c1C[C@@H]1CCNC[C@H]1F	6.83	1.94
O=C(Nc1ccc(Cl)cc1C(=O)O)c1ccc([N+](=O)[O-])cc1	54	
O=c1oc2ccccc2c(O)c1C(c1ccc(-c2ccccc2)cc1)c1c(O)c2ccccc2oc1=O	> 100	

SMILES	TGI [µM]	GI50 [µM]
COc1cc(/C=C(\NC(=O)c2ccccc2)c2nc3ncncc3[nH]2)cc(OC)c1OC	> 100	
O=C1CCC2c3ccccc3NCN12 (stereo unspecified)	> 100	
NC(=O)c1ccc([N+](=O)[O-])cc1	> 100	
CC1(C)C(=O)C(C)(C)C1=NNC(N)=S	> 100	
Fc1ccc(-c2nn3ccccc3c2-c2ccncc2)cc1	> 25	> 25
Cc1c2ccncc2c(C)c2c1[nH]c1ccc(Oc3ccccc3)cc12	> 100	
N#CC1(C#N)C=CC(=C2OCC3CCCN23)C=C1 (stereo unspecified)	> 100	
CCOC(=O)C1C(c2ccc(OC)cc2)c2c([nH][nH]c2=O)CC1(C)O (stereo unspecified)	> 100	
CCNC1=C(NC(=O)c2ccccc2)C(=O)c2ccccc2C1=O	> 100	
CC1(C)c2ccccc2N2O[C@@H]3C(=O)N(c4ccccc4)C(=O)[C@@H]3C21c1ccccc1 (stereo partly specified)	> 100	
COc1ccc(CCNC(=O)c2ccccc2C2c3ccc(OCc4ccccc4)cc3Oc3cc(OCc4ccccc4)ccc32)cc1OC	> 100	
O=C1NC2(CCCCC2)C(=O)N1CCN(CCCl)CCCl	> 250	> 25
COc1ccccc1/C=C\C(=O)C1COCN1 (stereo unspecified)	39.9	
COc1cc2ncnc(Nc3ccc(Oc4ccnc(C)c4)c(C)c3)c2cc1NC(=O)CC1CCSS1 (stereo unspecified)	2.74	1.07
CC/C(Cl)=N\OC(=O)Nc1ccc(OC)c(C)c1	> 100	
CCCCOc1ccc(/C=N/Nc2cc(C)nc3ccc(Br)cc23)cc1	3.15	1.76
Nc1nc2c(-c3ccc([N+](=O)[O-])cc3)nnn2c2ccccc12	> 100	
CN(C)CCOc1cc2c(c3ccccc13)-c1ccccc1C2O (stereo unspecified)	25.7	
CS(=O)(=O)c1cccc(Nc2ncc3cc(-c4ccccc4Cl)ccc3n2)c1	> 33.3	2.13
COc1ccc(-c2cc(-c3ccc(Cl)cc3)nc(NCCCCNc3ccnc4cc(Cl)ccc34)n2)cc1	31.3	15.1
O=C1c2cccc(O)c2C(=O)c2c(O)cccc21	> 100	
O=C(O)CCCNc1ncc2c(n1)-c1ccccc1OC2	> 100	
N#CC(C#N)=c1c2ccccc2c(=C(C#N)C#N)c2ccccc12	30.9	
COc1cc2c(oc(=O)c3cc4cc([Si](C)(C)C)oc4c(OC)c32)c2cccc(O)c12	> 100	
